Experimental data published in PubChem BioAssay AID1159614 (National Center for Advancing Translational Sciences (NCATS), 2016).
In all, about 45,000 compounds went through this assay and about 65 (0.1%) were called active. The call rests on the fitted dose curve; in most records, active means well fitted activation curve with a large enough effect; inconclusive means small, poorly fitted or top-dose-only effect; inactive means no such curve, though single readings can be large or run the other way. The list shows a part of the results.

target: Galactocerebrosidase (Homo sapiens) (UniProt P54803); experiment: A Novel Cell-Based Assay to Identify Small Molecules for B -Galactocerebrosidase; settings: 145M-Twi-hGALC-G270D cells (Twitcher mouse brain line with human GALC G270D), HMU-beta-Gal fluorescence, 48 h; series mostly up to 57.5 µM; activation: at the top concentration; further: 0% is about no effect; nearly all actives have a fitted effect of over 65% in size
UniProt P54803, sequence (P54803 whole entry, looked up): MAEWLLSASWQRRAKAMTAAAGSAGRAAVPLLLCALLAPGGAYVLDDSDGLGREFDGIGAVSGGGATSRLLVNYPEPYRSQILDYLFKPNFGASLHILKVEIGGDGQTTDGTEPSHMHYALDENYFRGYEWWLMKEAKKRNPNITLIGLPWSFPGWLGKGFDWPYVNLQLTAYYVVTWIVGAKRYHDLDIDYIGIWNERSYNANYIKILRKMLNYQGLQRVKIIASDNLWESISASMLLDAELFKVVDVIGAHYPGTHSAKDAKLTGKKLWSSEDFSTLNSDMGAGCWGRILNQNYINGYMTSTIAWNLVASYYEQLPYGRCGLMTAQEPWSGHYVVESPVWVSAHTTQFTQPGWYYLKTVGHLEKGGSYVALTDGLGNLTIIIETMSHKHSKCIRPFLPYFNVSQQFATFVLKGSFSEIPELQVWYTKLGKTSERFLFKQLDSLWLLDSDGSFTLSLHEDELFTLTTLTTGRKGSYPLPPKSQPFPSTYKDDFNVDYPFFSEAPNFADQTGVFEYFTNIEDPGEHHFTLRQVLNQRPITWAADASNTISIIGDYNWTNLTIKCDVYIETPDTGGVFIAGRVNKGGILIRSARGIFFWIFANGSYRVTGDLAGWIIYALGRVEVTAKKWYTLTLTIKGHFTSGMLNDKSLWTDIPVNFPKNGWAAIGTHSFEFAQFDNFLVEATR
Procedure, shortened: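 Fluorescence readout: HMU-β-gal cleavage by mutant GALC (0.1 mM final, citrate/phosphate pH 5.2 with 1 mg/mL taurocholate), stopped with carbonate/bicarbonate plus Triton X-100. Cells: murine Twitcher 145M-Twi expressing human G270D GALC; qHTS for activators.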

activation, inactive:
CCOC(=O)c1cnc2c(C)c(Cl)ccc2c1Nc1ccc(N2CCOCC2)cc1 -4.77%
CCc1cccc(NC(=O)CN(C)S(=O)(=O)c2ccc3c(c2)CCCN3C(C)=O)c1 4.86%
Cc1cc(C)c(S(=O)(=O)NCC(c2ccc(N(C)C)cc2)N2CCOCC2)c(C)c1 (configuration not stated) -10.8%
Cc1ccc2oc(=O)n(CCCOc3ccccc3Cl)c2c1 -21.9%
COc1ccccc1-c1noc(-c2ccc(NCC3CCCO3)c([N+](=O)[O-])c2)n1 (configuration not stated) 8.51%
CCCCN(C)CCNC(=O)CN1C(=O)CSc2ccc(S(=O)(=O)N3CCOCC3)cc21 -13.6%
CCc1nn2c(=O)c(S(=O)(=O)Nc3ccc(Cl)cc3)c(C)nc2s1 -21%
Cc1ccccc1Nc1c(-c2cccnc2)nc2ccc(Cl)cn12 -7.71%
CC(=O)O[C@@]12CO[C@@H]1C[C@H](O)[C@@]1(C)C(=O)[C@H](O)C3=C(C)[C@@H](OC(=O)[C@H](O)[C@@H](NC(=O)OC(C)(C)C)c4ccccc4)C[C@@](O)([C@@H](OC(=O)c4ccccc4)[C@H]21)C3(C)C -10.4%
COc1cccc(NC(=O)CN(CCc2ccccc2)S(=O)(=O)c2ccc(Cl)cc2)c1 -9.7%
Cc1nc2ccccc2n1CCc1nc2c3ccccc3nc(SCc3ccc(C#N)cc3)n2n1 -19.4%
O=c1c(NCc2cccs2)nccn1-c1ccc(F)cc1 -20.8%
CCOc1ccc(NS(=O)(=O)c2ccc3[nH]c4c(c3c2)CCCCC4)cc1 -17.9%
O=C(COCc1cc(-c2ccc(F)cc2)on1)Nc1cc(F)ccc1F 1.97%
O=S(=O)(NCc1nc2cccnc2n1Cc1ccccc1Cl)c1ccc2c(c1)CCCC2 -6.83%
Cc1cccc(-c2nc3c4ccccc4nc(NCCc4ccccc4)n3n2)c1 -1.74%
O=C(CCn1cccn1)Nc1ccc(Br)cc1F -17.9%
COc1ccc(CNC(=O)c2ccc3c(c2)N(Cc2c(F)cccc2Cl)C(=O)CS3)cc1 -11.6%
CCOC(=O)CSc1nc2ccc(NC(=O)c3cccc(F)c3)cc2s1 6.97%
CCc1cc2c(cc3c(=O)n(CCCC(=O)NCc4cccc(Cl)c4)ncn32)s1 -3.71%
O=C(CN1C(=O)CCn2nc(-c3ccccc3)cc21)NCc1ccc(Cl)cc1 -6.32%
Cc1cccc(CCNC(=O)c2cc3c(=O)n(C)c4ccccc4c3n2C)c1 -10.4%
COc1ccccc1N1CCN(C(=O)c2c(C)oc3ncn(C)c(=O)c23)CC1 -17.1%
O=C(CCSCc1ccccc1Cl)NCc1ccc(F)cc1Cl -24.4%
Cc1cc2c(n1-c1ccc(C(=O)NCc3ccccc3Cl)cc1)CCCC2 -19.5%
CCN(CC)CCCNC(=O)Cc1csc2nc(-c3ccc(Cl)cc3)cn12 -4.92%
CSc1ccc(CCNC(=O)CCc2c(C)nc3ncnn3c2C)cc1 -6.68%
CCOc1ccccc1C(=O)NC1(C(F)(F)F)C(=O)Nc2c1c(=O)[nH]c(=O)n2-c1ccc(F)cc1 (configuration not stated) -13.3%
COc1ccc(C(CC(=O)Nc2ccc(C(C)=O)cc2)N2Cc3ccccc3C2=O)cc1 (configuration not stated) -10.5%
Cc1cccc2c1-c1sc(C(=O)N(C)c3cccc(Cl)c3)cc1CO2 -14.5%
CC(C)c1cnc2c(c1SCC(=O)NCc1ccccc1Cl)c(=O)n(C)c(=O)n2C -4.13%
O=C(c1ccc2c(c1)N(Cc1cccc(F)c1)C(=O)c1ccccc1S2)N1CCCC1 -18.9%
Cc1cccc(N2CCN(C(=O)c3noc4c3COc3ccc(C)cc3-4)CC2C)c1 (configuration not stated) -0.994%
Cc1ccc(CN2C(=O)c3ccccc3CC2(C)C(=O)NC2CCCCC2)cc1 (configuration not stated) -15.5%
COc1ccc(NC(=O)NC2COc3ccccc3C2)cc1Cl (configuration not stated) -12.6%
Cc1ccc(C(=O)Nc2cccc3cccnc23)cc1Cl -14.1%
COc1cccc(OC)c1C(=O)NCCc1csc(-c2ccc(Cl)cc2)n1 -1.13%
COC(=O)c1c(-c2cccs2)csc1NC(=O)COc1ccc(C)cc1 -7.81%
Cn1nnnc1SCCNCc1cc(Br)ccc1OCc1ccccc1Cl -24.6%
CN1C(=O)CC(c2ccccc2)C1=O (configuration not stated) -4.44%
COc1ccc(-c2csc(=Nc3ccccc3)n2CCO)cc1F -11.4%
CCOC(=O)c1c(Nc2ccc(OC)cc2)nnc(-c2ccccc2)c1-c1ccccc1 -10.9%
CCOc1ccc(NC(=O)COc2ccc(S(=O)(=O)NC3CCCCC3)cc2)cc1 0.919%
CN1CCN(c2ncc3c(n2)CCN(Cc2ccc(Br)s2)C3)CC1 -12%
CCOC(=O)N1CCc2c(sc3c2c(=O)n(-c2ccc(Cl)cc2)c(=O)n3CC(C)C)C1 -0.349%
COc1ccc(Nc2c(-c3cccc(O)c3)nc3cnccn23)cc1 -12.1%
CN(C)CCN(Cc1ccccc1)c1ccccn1 -17.4%
Cc1ccc(Cl)cc1Nc1nn2c(=O)c3ccc(C(=O)NCc4ccc(F)cc4)cc3nc2s1 -8.6%
Cc1cccc(-c2nc3scc(CCNS(=O)(=O)c4ccc5c(c4)OCCO5)n3n2)c1 -15.5%
Cc1cccn2c(=O)c(C(=O)NCc3cccc(F)c3)cnc12 0.271%
CCOc1ccc(CNC(=O)Cc2ccc(NC(=O)N3CCSc4ncccc43)cc2)cc1 -12.8%
Cn1c(=O)c2sccc2n2c(CCC(=O)NCc3ccc(Cl)cc3)nnc12 -14.8%
CC(=O)c1ccc(N2CCN(C(=O)C3CCN(S(=O)(=O)c4cn(C)cn4)CC3)CC2)cc1 -9.54%
CCCOc1ccc(-c2nc(SCC(=O)c3ccc(Cl)cc3)n[nH]2)cc1 -12.9%
Cc1ccc(S(=O)(=O)c2nc(S(=O)(=O)c3ccccc3)sc2NCCCOC(C)C)cc1 -28.3%
CCc1ccc(NC(=O)Cn2ccn(-c3ccc(C)c(C)c3)c(=O)c2=O)cc1 -11%
COc1ccccc1-c1cc(C(=O)NCc2ccccc2)c2c(-c3ccc(C)cc3)[nH]nc2n1 -19.7%
COc1ccc(NC(=O)c2oc3ccccc3c2NC(=O)Cc2coc3c(C)c(C)ccc23)cc1 -7.72%
COc1ccc(-c2nc3cc(NC(=O)CSc4ccc(C)cc4)ccc3o2)cc1 -17.4%
Cc1ccc(S(=O)(=O)NCCc2cn3ccsc3n2)c(C)c1 -17.9%
CCN(CC)CCNC(=O)c1c2c(nc3ccccc13)C(=O)N(C1CCCCC1)C2 -22.2%
Cc1ccccc1NC(=O)Cn1c(=O)n(Cc2ccc3c(c2)OCO3)c(=O)c2ccccc21 -11.7%
COc1cccc(NC(=O)Cn2cc(C(=O)c3ccc(C)cc3)c(=O)c3cc(OC)ccc32)c1 -10.5%
CCOc1ccc(NC(=O)/C(C#N)=C\c2ccc(-c3ccc(Cl)cc3)o2)cc1 2.74%
O=C(CSc1n[nH]c(-c2ccc(F)cc2)n1)NCCc1ccccc1 -3.58%
Cc1c(Cl)cccc1NC(=O)CCS(=O)(=O)c1ccc2c(c1)CC(=O)N2C -9.93%
CC(=O)Nc1ccc(Nc2ncnc3c2cnn3C)cc1 -6.52%
CCOC(=O)c1c(NC(=O)c2cc(OC)c(OC)c(OC)c2)sc2c1CCCC2 -6.51%
Cc1ccc(C)n1-c1nnc(N2CCCC(C(=O)Nc3ccccc3Br)C2)s1 (configuration not stated) -0.551%
COc1ccccc1-c1noc(CCCC(=O)Nc2cccc(C(F)(F)F)c2)n1 -14.1%
CCCN(CCC)C(=O)Cn1c(=O)n(CCCCCC(=O)NCc2ccc3c(c2)OCO3)c(=O)c2sccc21 -11%
CC1CCN(c2ncnc3c2c(-c2ccccc2)cn3-c2ccc(Br)cc2)CC1 -4.05%
CCOc1ccccc1CNC(=O)c1oc2c(c1C)-c1[nH]ncc1CC2 -7.14%
C[n+]1cc2c3c(ccc2c2ccc4cc5c(cc4c21)OCO5)OCO3 -11.5% [at 23.8 µM]
COc1ccc(-c2cn3nc(N4CCC(C(=O)Nc5cc(Cl)ccc5C)CC4)sc3n2)cc1 -9.97%
COc1ccc(NC(=O)CCCn2c(=O)c3cccn3c3cccnc32)cc1Cl -2.47%
CC(C)(C)c1ccc(OCC(=O)NCC2(N3CCOCC3)CCCCC2)cc1 -0.828%
O=C(CN1C(=O)C2(SCC(=O)N2c2cccc(Cl)c2)c2ccccc21)NCc1ccccc1 (configuration not stated) -22.9%
CCc1cccc(-n2c(=O)c3cccnc3n2CC(=O)NCc2ccc(C)cc2)c1 -13.4%
O=C(CCCCCn1c(=O)c2sccc2n(CC(=O)Nc2cc(C(F)(F)F)ccc2Cl)c1=O)NCc1ccccc1Cl -14.6%
Cc1ccc(NC(=O)Cn2cnc3onc(-c4ccc(F)cc4)c3c2=O)c(Cl)c1 -27.2%
COc1ccccc1-c1cc2nc(C)c(CCC(=O)NCCc3cccc(C)c3)c(C)n2n1 -40%
CC1=C(C(=O)Nc2cc(Cl)ccc2C)C(c2sccc2C)n2ncnc2N1 (configuration not stated) -17.7%
Cc1ccc(Cl)cc1N1CCN(C(=O)CSc2cc(=O)n(C)c3ccccc23)CC1 -48.7%
Cc1cccc(CC(=O)Nc2ccc3nc(N4CCC(C)CC4)cc(C)c3c2)c1 -17.2%
CSc1ncc(C(=O)NCc2ccc(C)cc2)c(C)n1 -6.11%
COc1ccc(C(=O)Nc2ccc3nc(SCC(=O)N(C)c4ccccc4)sc3c2)cc1 -27.7%
O=C(CSc1cn(CCNC(=O)c2cccc(C(F)(F)F)c2)c2ccccc12)Nc1ccc2c(c1)OCCO2 -6.52%
CC(C)(C)c1ccc2c(c1)N(CC(=O)NCCCN1CCN(c3ccccc3F)CC1)C(=O)CO2 -6.41%
Cc1cc(C)c(NC(=O)Cn2c(=O)n(CCC(=O)NCc3ccccc3Cl)c(=O)c3sccc32)c(C)c1 -9.72%
O=C(Nc1nc2ccc(F)cc2s1)c1nc(S(=O)(=O)Cc2ccccc2F)ncc1Cl -14.5%
CC1CCN(S(=O)(=O)c2ccc3c(c2)N(CC(=O)NCCCN2CCCCC2)C(=O)CS3)CC1 -13.2%
Cc1ccc(CNC(=O)c2cc(-c3ccc(C)cc3)nc3n[nH]c(-c4cccc([N+](=O)[O-])c4)c23)cc1 -4.76%
O=C(c1ccc(F)cc1)N1CCC(c2nc3ccccc3s2)CC1 -2.95%
CN(C)C(=S)SC(=S)N(C)C -15.6%
CC(C)N(C(=O)Cn1cc(S(=O)(=O)Cc2ccc(Br)cc2)c2ccccc21)C(C)C -13%
Cc1c(C(=O)Nc2ccc(F)c(C(F)(F)F)c2)sc2nc(-c3ccccc3)cn12 -7.33%
